Results as given in the supplement of paper PMC12217912.
The other results are listed elsewhere or left out. Sequences were assembled here from the parent chain. Values near 0.05 are background.

B1: TEV protease; numbered along this chain (parent)
chain: MGESLFKGPRDYNPISSSICHLTNESDGHTTSLYGIGFGPFIITNKHLFRRNNGTLVVQSLHGVFKVKDTTTLQQHLVDGRDMIIIRMPKDFPPFPQKLKFREPQREERICLVTTNFQTKSMSSMVSDTSCTFPSGDGIFWKHWIQTKDGQCGSPLVSTRDGFIVGIHSASNFTNTNNYFTSVPKNFMELLTNQEAQQWVSGWRLNADSVLWGGHKVFMVKPEEPFQPVKEATQL

Variants of: B1
Experiment: raw area under fraction-flipped curve 0-4 h after induction (AUC4h, not background-subtracted), DNA-recorder readout of cleavage of the substrate (dimensionless); higher = more cleavage of the substrate by the protease variant
Settings: temperature: 34 °C; time window: 0-4 h after rhamnose induction
Method: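 In vivo DNA recorder in E. coli TOP10(DE3) ΔrhaA at 34 °C. Each TEVp single-site mutant (parent TEVp 0) is paired with a single-site variant of the 7-mer TEVs (canonical ENLYFQ|S). The substrate sits between flexible linkers in a Bxb1-sfGFP-TEVs-SsrA fusion, so cleavage stabilises Bxb1 and speeds flipping of a recombination array, read by NGS. The value is the raw area under the fraction-flipped curve over 0-4 h after rhamnose induction (AUC4h), with ≥20 reads per time point. It is not background-subtracted; inactive controls average about 0.047.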
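Further: Bxb1 expression induced with 0.2% (w/v) L-rhamnose at OD600 near 0.5, cultures sampled hourly, flipped fraction per protease–substrate barcode pair counted by paired-end Illumina sequencing.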

Question: Which results are given for MGESLFKGPRDYNPISSSICHLTNESDGHTTSLYGIGFGPFIITNKHLFRRNNGTLVVQSLHGVFKVKDTTTLQQHLVDGRDMIIIRMPKDFPPFPQKLKFREPQREERICLVTTNFQTMSMSSMVSDTSCTFPSGDGIFWKHWIQTKDGQCGSPLVSTRDGFIVGIHSASNFTNTNNYFTSVPKNFMELLTNQEAQQWVSGWRLNADSVLWGGHKVFMVKPEEPFQPVKEATQL [K120M]?
Answer: area with substrate ENLYFCS: 0.0538; area with substrate ENLYFDS: 0.056; area with substrate ENLYFES: 0.0678; area with substrate ENLYFFS: 0.0771; area with substrate ENLYFIS: 0.055; area with substrate ENLYFKS: 0.0501; area with substrate ENLYFMS: 0.0497; area with substrate ENLYFPS: 0.0655; area with substrate ENLYFRS: 0.0569; area with substrate ENLYFSS: 0.0589; area with substrate ENLYFTS: 0.06; area with substrate ENLYFVS: 0.0312

Question: With MGESLFKGPRDYNPISSSICHLTNESDGHTTSLYGIGFGPFIITNKHLFRRNNGTLVVQSLHGVFKVKDTTTLQQHLVDGRDMIIIRMPKDFPPFPQKLKFREPQREERICLVTTNFQTKRMSSMVSDTSCTFPSGDGIFWKHWIQTKDGQCGSPLVSTRDGFIVGIHSASNFTNTNNYFTSVPKNFMELLTNQEAQQWVSGWRLNADSVLWGGHKVFMVKPEEPFQPVKEATQL [S121R] as the variant, how does the “area with substrate ENLYFCS” value read?
Answer: 0.0661

Question: What about the “area with substrate ENLYFDS” value of the same variant?
Answer: 0.0533

Question: And the “area with substrate ENLYFES” value?
Answer: 0.0742

Question: And the “area with substrate ENLYFFS” value?
Answer: 0.0745

Question: What about the “area with substrate ENLYFGS” value of the same variant?
Answer: 0.0655

Question: What about the “area with substrate ENLYFHS” value of the same variant?
Answer: 0.0639

Question: And the “area with substrate ENLYFIS” value?
Answer: 0.0355

Question: What about the “area with substrate ENLYFKS” value of the same variant?
Answer: 0.0605

Question: And the “area with substrate ENLYFMS” value?
Answer: 0.0638

Question: And the “area with substrate ENLYFNS” value?
Answer: 0.0543

Question: And the “area with substrate ENLYFPS” value?
Answer: 0.0629

Question: What about the “area with substrate ENLYFRS” value of the same variant?
Answer: 0.0553

Question: What about the “area with substrate ENLYFSS” value of the same variant?
Answer: 0.0585

Question: And the “area with substrate ENLYFTS” value?
Answer: 0.056

Question: And the “area with substrate ENLYFVS” value?
Answer: 0.0589

Question: And the “area with substrate ENLYFYS” value?
Answer: 0.0645

Question: Which results are given for MGESLFKGPRDYNPISSSICHLTNESDGHTTSLYGIGFGPFIITNKHLFRRNNGTLVVQSLHGVFKVKDTTTLQQHLVDGRDMIIIRMPKDFPPFPQKLKFREPQREERICLVTTNFQTKSDSSMVSDTSCTFPSGDGIFWKHWIQTKDGQCGSPLVSTRDGFIVGIHSASNFTNTNNYFTSVPKNFMELLTNQEAQQWVSGWRLNADSVLWGGHKVFMVKPEEPFQPVKEATQL [M122D]?
Answer: area with substrate ENLYFCS: 0.0576; area with substrate ENLYFDS: 0.0622; area with substrate ENLYFES: 0.0719; area with substrate ENLYFFS: 0.0726; area with substrate ENLYFGS: 0.0635; area with substrate ENLYFHS: 0.0546; area with substrate ENLYFIS: 0.0606; area with substrate ENLYFLS: 0.0662; area with substrate ENLYFMS: 0.0842; area with substrate ENLYFNS: 0.0718; area with substrate ENLYFPS: 0.0533; area with substrate ENLYFRS: 0.0715; area with substrate ENLYFSS: 0.0625; area with substrate ENLYFTS: 0.0606; area with substrate ENLYFWS: 0.0645

Question: What does the source list for MGESLFKGPRDYNPISSSICHLTNESDGHTTSLYGIGFGPFIITNKHLFRRNNGTLVVQSLHGVFKVKDTTTLQQHLVDGRDMIIIRMPKDFPPFPQKLKFREPQREERICLVTTNFQTKSMSSMSSDTSCTFPSGDGIFWKHWIQTKDGQCGSPLVSTRDGFIVGIHSASNFTNTNNYFTSVPKNFMELLTNQEAQQWVSGWRLNADSVLWGGHKVFMVKPEEPFQPVKEATQL [V126S]?
Answer: area with substrate ENLYFCS: 0.0453; area with substrate ENLYFDS: 0.0667; area with substrate ENLYFES: 0.0409; area with substrate ENLYFFS: 0.0653; area with substrate ENLYFHS: 0.0712; area with substrate ENLYFIS: 0.0521; area with substrate ENLYFKS: 0.0672; area with substrate ENLYFLS: 0.0512; area with substrate ENLYFMS: 0.0603; area with substrate ENLYFNS: 0.0735; area with substrate ENLYFPS: 0.0673; area with substrate ENLYFRS: 0.0622; area with substrate ENLYFTS: 0.054; area with substrate ENLYFWS: 0.0498; area with substrate ENLYFYS: 0.0584

Question: What does the source list for MGESLFKGPRDYNPISSSICHLTNESDGHTTSLYGIGFGPFIITNKHLFRRNNGTLVVQSLHGVFKVKDTTTLQQHLVDGRDMIIIRMPKDFPPFPQKLKFREPQREERICLVTTNFQTKSMSSMVSPTSCTFPSGDGIFWKHWIQTKDGQCGSPLVSTRDGFIVGIHSASNFTNTNNYFTSVPKNFMELLTNQEAQQWVSGWRLNADSVLWGGHKVFMVKPEEPFQPVKEATQL [D128P]?
Answer: area with substrate ENLYFCS: 0.0566; area with substrate ENLYFES: 0.0722; area with substrate ENLYFGS: 0.0484; area with substrate ENLYFIS: 0.0604; area with substrate ENLYFKS: 0.0833; area with substrate ENLYFMS: 0.0616; area with substrate ENLYFNS: 0.0482; area with substrate ENLYFPS: 0.0608; area with substrate ENLYFTS: 0.0671; area with substrate ENLYFVS: 0.0592; area with substrate ENLYFWS: 0.063

Question: Which “area with substrate ENLYFCS” value does the source give for MGESLFKGPRDYNPISSSICHLTNESDGHTTSLYGIGFGPFIITNKHLFRRNNGTLVVQSLHGVFKVKDTTTLQQHLVDGRDMIIIRMPKDFPPFPQKLKFREPQREERICLVTTNFQTKSMSSMVSDYSCTFPSGDGIFWKHWIQTKDGQCGSPLVSTRDGFIVGIHSASNFTNTNNYFTSVPKNFMELLTNQEAQQWVSGWRLNADSVLWGGHKVFMVKPEEPFQPVKEATQL [T129Y] here?
Answer: 0.0673

Question: And the “area with substrate ENLYFES” value?
Answer: 0.0534

Question: What about the “area with substrate ENLYFFS” value of the same variant?
Answer: 0.0514

Question: What about the “area with substrate ENLYFGS” value of the same variant?
Answer: 0.049

Question: What about the “area with substrate ENLYFHS” value of the same variant?
Answer: 0.0535

Question: And the “area with substrate ENLYFIS” value?
Answer: 0.0519

Question: What about the “area with substrate ENLYFLS” value of the same variant?
Answer: 0.0553

Question: And the “area with substrate ENLYFMS” value?
Answer: 0.0664

Question: And the “area with substrate ENLYFNS” value?
Answer: 0.0644

Question: What about the “area with substrate ENLYFPS” value of the same variant?
Answer: 0.0568

Question: What about the “area with substrate ENLYFRS” value of the same variant?
Answer: 0.0528

Question: What about the “area with substrate ENLYFSS” value of the same variant?
Answer: 0.0499

Question: What about the “area with substrate ENLYFTS” value of the same variant?
Answer: 0.0598

Question: What about the “area with substrate ENLYFVS” value of the same variant?
Answer: 0.0662

Question: And the “area with substrate ENLYFWS” value?
Answer: 0.0855

Question: And the “area with substrate ENLYFYS” value?
Answer: 0.0509

Question: For MGESLFKGPRDYNPISSSICHLTNESDGHTTSLYGIGFGPFIITNKHLFRRNNGTLVVQSLHGVFKVKDTTTLQQHLVDGRDMIIIRMPKDFPPFPQKLKFREPQREERICLVTTNFQTKSMSSMVSDTSCHFPSGDGIFWKHWIQTKDGQCGSPLVSTRDGFIVGIHSASNFTNTNNYFTSVPKNFMELLTNQEAQQWVSGWRLNADSVLWGGHKVFMVKPEEPFQPVKEATQL [T132H], which “area with substrate ENLYFCS” value is on record?
Answer: 0.0406

Question: And the “area with substrate ENLYFES” value?
Answer: 0.0916

Question: What about the “area with substrate ENLYFFS” value of the same variant?
Answer: 0.0695

Question: And the “area with substrate ENLYFGS” value?
Answer: 0.0591

Question: And the “area with substrate ENLYFIS” value?
Answer: 0.0533

Question: And the “area with substrate ENLYFKS” value?
Answer: 0.0802

Question: And the “area with substrate ENLYFLS” value?
Answer: 0.0772

Question: What about the “area with substrate ENLYFMS” value of the same variant?
Answer: 0.0595

Question: What about the “area with substrate ENLYFPS” value of the same variant?
Answer: 0.0714

Question: What about the “area with substrate ENLYFWS” value of the same variant?
Answer: 0.0614

Question: For MGESLFKGPRDYNPISSSICHLTNESDGHTTSLYGIGFGPFIITNKHLFRRNNGTLVVQSLHGVFKVKDTTTLQQHLVDGRDMIIIRMPKDFPPFPQKLKFREPQREERICLVTTNFQTKSMSSMVSDTSCTTPSGDGIFWKHWIQTKDGQCGSPLVSTRDGFIVGIHSASNFTNTNNYFTSVPKNFMELLTNQEAQQWVSGWRLNADSVLWGGHKVFMVKPEEPFQPVKEATQL [F133T], which “area with substrate ENLYFCS” value is on record?
Answer: 0.0498

Question: And the “area with substrate ENLYFES” value?
Answer: 0.073

Question: And the “area with substrate ENLYFFS” value?
Answer: 0.072

Question: And the “area with substrate ENLYFIS” value?
Answer: 0.0575

Question: What about the “area with substrate ENLYFMS” value of the same variant?
Answer: 0.0727

Question: And the “area with substrate ENLYFNS” value?
Answer: 0.0578

Question: What about the “area with substrate ENLYFPS” value of the same variant?
Answer: 0.0579

Question: What about the “area with substrate ENLYFTS” value of the same variant?
Answer: 0.072

Question: Which “area with substrate ENLYFCS” value does the source give for MGESLFKGPRDYNPISSSICHLTNESDGHTTSLYGIGFGPFIITNKHLFRRNNGTLVVQSLHGVFKVKDTTTLQQHLVDGRDMIIIRMPKDFPPFPQKLKFREPQREERICLVTTNFQTKSMSSMVSDTSCTFISGDGIFWKHWIQTKDGQCGSPLVSTRDGFIVGIHSASNFTNTNNYFTSVPKNFMELLTNQEAQQWVSGWRLNADSVLWGGHKVFMVKPEEPFQPVKEATQL [P134I] here?
Answer: 0.0479

Question: And the “area with substrate ENLYFDS” value?
Answer: 0.0623

Question: And the “area with substrate ENLYFES” value?
Answer: 0.0539

Question: And the “area with substrate ENLYFHS” value?
Answer: 0.0559

Question: And the “area with substrate ENLYFIS” value?
Answer: 0.0766

Question: And the “area with substrate ENLYFLS” value?
Answer: 0.0574

Question: What about the “area with substrate ENLYFMS” value of the same variant?
Answer: 0.0662

Question: What about the “area with substrate ENLYFNS” value of the same variant?
Answer: 0.0614

Question: What about the “area with substrate ENLYFPS” value of the same variant?
Answer: 0.0728

Question: What about the “area with substrate ENLYFRS” value of the same variant?
Answer: 0.0529

Question: What about the “area with substrate ENLYFSS” value of the same variant?
Answer: 0.0504

Question: And the “area with substrate ENLYFTS” value?
Answer: 0.0677

Question: And the “area with substrate ENLYFVS” value?
Answer: 0.0483

Question: And the “area with substrate ENLYFWS” value?
Answer: 0.0596
